# Screen size: about 360,000 compounds; about 16,000 (4.4%) were called active. The shares of active, inactive and inconclusive entries below differ from those in the screen. Calls come from the whole dose curve; as a rule, active = well fitted inhibition curve with a large enough effect; inconclusive = small, poorly fitted or top-dose-only effect; inactive = no such curve, though single readings can be large or run the other way. A potency beside an inconclusive call is a rough fit, not a confirmed value.
# Target: Bromodomain adjacent to zinc finger domain protein 2B (Homo sapiens) (UniProt Q9UIF8)
# Test: qHTS Assay for Inhibitors of BAZ2B; note: nearly all actives have a fitted effect of over 60% in size
# Conditions: AlphaScreen BAZ2B-H3K14Ac peptide displacement; activity change, negative = inhibition: at 114 µM (top of the series)
# Outline: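 Complex of BAZ2B and biotin-H3K14Ac (50 nM apiece) forms over 30 min at RT, then faces library compounds up to 110 uM for another 30 min; AlphaScreen beads added, 20 min dark incubation, luminescence read.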
# % is set by controls: 0 for no effect and ±100 for the full control effect; potency is the fitted concentration of half-maximal effect; tags give direction and shape of the fitted curve.
# UniProt Q9UIF8, sequence (Q9UIF8 whole entry, looked up, the tested form may be a part): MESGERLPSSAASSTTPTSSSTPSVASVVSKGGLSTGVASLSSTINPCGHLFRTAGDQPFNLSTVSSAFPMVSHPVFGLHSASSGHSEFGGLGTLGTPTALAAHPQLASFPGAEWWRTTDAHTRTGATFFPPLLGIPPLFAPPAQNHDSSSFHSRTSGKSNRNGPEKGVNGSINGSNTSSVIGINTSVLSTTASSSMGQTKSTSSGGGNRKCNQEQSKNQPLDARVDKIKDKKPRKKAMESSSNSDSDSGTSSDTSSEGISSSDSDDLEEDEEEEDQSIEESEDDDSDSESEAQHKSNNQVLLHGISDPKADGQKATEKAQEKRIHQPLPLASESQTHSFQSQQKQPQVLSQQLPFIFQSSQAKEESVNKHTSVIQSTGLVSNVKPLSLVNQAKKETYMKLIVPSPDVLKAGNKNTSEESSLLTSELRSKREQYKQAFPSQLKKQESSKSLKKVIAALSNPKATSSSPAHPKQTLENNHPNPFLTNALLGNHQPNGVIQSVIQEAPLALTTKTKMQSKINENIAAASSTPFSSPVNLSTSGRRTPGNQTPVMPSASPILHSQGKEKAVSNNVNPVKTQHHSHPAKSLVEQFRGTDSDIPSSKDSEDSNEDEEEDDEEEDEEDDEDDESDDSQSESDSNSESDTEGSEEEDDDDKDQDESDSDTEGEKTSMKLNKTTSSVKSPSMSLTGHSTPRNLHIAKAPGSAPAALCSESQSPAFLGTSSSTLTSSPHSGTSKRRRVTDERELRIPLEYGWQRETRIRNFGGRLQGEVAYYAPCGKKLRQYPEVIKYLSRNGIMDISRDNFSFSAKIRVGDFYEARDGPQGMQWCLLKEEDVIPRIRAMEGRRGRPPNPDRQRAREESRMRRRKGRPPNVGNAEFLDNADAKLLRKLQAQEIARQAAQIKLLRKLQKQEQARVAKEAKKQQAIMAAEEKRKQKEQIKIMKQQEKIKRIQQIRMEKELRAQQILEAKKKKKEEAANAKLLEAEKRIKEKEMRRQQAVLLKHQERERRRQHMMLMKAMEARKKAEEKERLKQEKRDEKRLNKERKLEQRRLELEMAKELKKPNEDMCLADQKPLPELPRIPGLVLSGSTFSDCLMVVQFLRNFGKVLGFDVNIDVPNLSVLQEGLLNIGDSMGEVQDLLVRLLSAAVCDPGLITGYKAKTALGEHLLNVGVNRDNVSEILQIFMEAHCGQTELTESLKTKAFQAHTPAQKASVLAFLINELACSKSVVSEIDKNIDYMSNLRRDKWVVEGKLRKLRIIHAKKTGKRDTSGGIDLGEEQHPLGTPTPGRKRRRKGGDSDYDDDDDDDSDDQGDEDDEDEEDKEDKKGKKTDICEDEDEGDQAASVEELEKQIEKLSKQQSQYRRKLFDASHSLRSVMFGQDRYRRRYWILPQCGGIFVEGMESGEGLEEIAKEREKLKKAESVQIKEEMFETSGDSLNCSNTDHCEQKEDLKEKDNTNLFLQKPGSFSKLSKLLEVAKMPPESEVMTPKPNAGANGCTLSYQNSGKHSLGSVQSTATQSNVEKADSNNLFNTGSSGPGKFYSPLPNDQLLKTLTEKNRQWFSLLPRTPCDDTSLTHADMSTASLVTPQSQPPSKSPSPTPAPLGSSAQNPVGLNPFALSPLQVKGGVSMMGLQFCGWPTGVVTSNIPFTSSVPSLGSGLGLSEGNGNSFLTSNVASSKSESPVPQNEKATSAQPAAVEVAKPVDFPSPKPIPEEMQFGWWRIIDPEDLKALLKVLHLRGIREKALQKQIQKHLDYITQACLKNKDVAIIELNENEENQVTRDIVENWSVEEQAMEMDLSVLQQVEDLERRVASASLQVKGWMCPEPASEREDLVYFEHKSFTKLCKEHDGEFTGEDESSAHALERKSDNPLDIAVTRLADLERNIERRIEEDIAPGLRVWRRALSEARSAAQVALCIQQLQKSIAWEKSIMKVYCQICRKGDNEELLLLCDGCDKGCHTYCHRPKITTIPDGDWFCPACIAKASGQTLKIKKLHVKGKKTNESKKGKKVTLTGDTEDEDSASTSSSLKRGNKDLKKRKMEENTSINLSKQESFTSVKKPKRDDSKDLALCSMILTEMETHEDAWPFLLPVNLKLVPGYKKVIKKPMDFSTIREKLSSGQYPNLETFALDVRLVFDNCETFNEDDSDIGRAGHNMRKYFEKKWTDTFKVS
SMILES,Potency,"activity change, negative = inhibition"
O=C(N/N=C/c1sc(N2CCCCC2)nc1-c1cccs1)c1cccnc1,"inconclusive: 70.8 µM [inhibitor, partial curve]",–
COc1ccc(-c2cc3cc(OC)c(OC)cc3c(C)n2)cc1C,–,inactive: -16.2%
Cc1c(Br)c([N+](=O)[O-])nn1CC(=O)Nc1cccc2nonc12,"inconclusive: 79.4 µM [inhibitor, single point]",–
Cc1sc(NC(=O)CN2CCOCC2)nc1-c1ccc2c(c1)CCN2S(=O)(=O)c1ccccc1,"inconclusive: 79.4 µM [inhibitor, single point]",–
COC1CCCN(Cc2c(C(=O)N3CCc4ccccc4C3)nc3ccc(Cl)cn23)C1 (configuration not stated),"inconclusive: 89.1 µM [inhibitor, single point]",–
COc1ccccc1NC(=O)c1c(N=Cc2c(O)ccc3ccccc23)cnn1C,"inconclusive: 10 µM [inhibitor, full curve]",–
COc1ccccc1-c1nnc(C2CCN(C(=O)c3ccc(Cl)cc3)CC2)o1,–,inactive: -15%
C=CCn1c(SCc2c(C(=O)OC)sc(N)c2C(=O)OC)nnc1-c1ccc(Br)cc1,–,inactive: -32.7%
Cc1ccc(-c2nn(-c3ccccc3)cc2C=C2C(=O)CC(C)(C)CC2=O)cc1,"inconclusive: 79.4 µM [inhibitor, single point]",–
COc1ccc(Br)cc1C(=O)NC(=S)Nc1ccc(CN2CCOCC2)cc1,active: 25.1 µM,–
O=C(C1CCN(Cc2ccc(OCc3ccccc3)cc2)CC1)N1CCCC1,active: 79.4 µM,–
Cc1c(NC(NC(=O)CC(C)C)C(Cl)(Cl)Cl)c(=O)n(-c2ccccc2)n1C (configuration not stated),–,inactive: 1.31%
N=C1/C(=C/c2ccc(-c3cccc(C(=O)O)c3)o2)C(=O)N=C2SC=C(c3ccccc3)N12,active: 12.6 µM,–
CN(C)c1ccc(N=Nc2ccc(C(=O)O)cc2)cc1,active: 35.5 µM,–
CN(CC(=O)Nc1ccccc1Br)C(=O)CCC1CCCC1,"inconclusive: 79.4 µM [inhibitor, single point]",–
COc1ccc(C2CC(c3ccccc3)=NN2C(=O)CCC(=O)O)cc1 (configuration not stated),–,inactive: -3%
COc1cccc(C(=O)N2CCN(Cc3ccc(OC)cc3OC)CC2)c1,active: 25.1 µM,–
COc1ccc(CCN/C=C2/CC(=O)NC2=O)cc1OC,"inconclusive: 79.4 µM [inhibitor, partial curve]",–
CCOC(=O)CN1C(=O)S/C(=C\c2ccc(-c3ccc(C(=O)O)c(Cl)c3)o2)C1=O,"inconclusive: 89.1 µM [inhibitor, single point]",–

SMILES,Potency,"activity change, negative = inhibition"
O=[N+]([O-])c1ccc(O)c(/C=N/Nc2nc3ccccc3[nH]2)c1,active: 31.6 µM,–
S=C(NCc1ccco1)Nc1ccc(Br)cn1,–,inactive: 9.68%
O=[N+]([O-])c1ccc(C(=S)N2CCC(Cc3ccccc3)CC2)cc1,"inconclusive: 8.91 µM [inhibitor, full curve]",–
O=C(c1ccc(Cl)c([N+](=O)[O-])c1)N1CCCc2ccccc21,"inconclusive: 89.1 µM [inhibitor, single point]",–
CCOCCCNC(=O)C(=O)Nc1c2c(nn1-c1ccc(OC)cc1)CSC2,–,inactive: 4.58%
Cc1ccc2c(=O)c(C(=O)c3ccc(F)cc3)cn(CC(=O)NCCc3ccccc3)c2n1,–,inactive: 51.5% [at 57.1 µM]
Cc1sc(NC(=O)Cc2ccc3c(c2)OCO3)nc1-c1ccc2c(c1)CCN2C(=O)c1ccc(F)cc1,–,inactive: -9.72%
COc1ccc(S(=O)(=O)Nc2cc3c(cc2NCc2ccccc2)n(C)c(=O)n3C)cc1,active: 44.7 µM,–
COc1ccc(N2CCOCC2)c(NC(=O)c2cccnc2)c1,"inconclusive: 44.7 µM [inhibitor, partial curve]",–
CC(C)CNC(=O)C1CCN(CC2CCCCC2)CC1,–,inactive: -3.52% [at 57.1 µM]
CCOc1ccc(C(=O)Nc2ccc3oc(-c4cccnc4)nc3c2)cc1,–,inactive: 1.7%
C/C(=N\Nc1cccc(Cl)c1)c1ccncc1,"inconclusive: 79.4 µM [inhibitor, single point]",–
O=C(NCCCn1ccnc1)/C(=C\c1ccc(Br)cc1)NC(=O)c1ccccc1F,"inconclusive: 79.4 µM [inhibitor, partial curve]",–
CCCN1CCc2nc(N3CCN(c4ncccn4)CC3)ncc2C1,active: 50.1 µM,–
Cc1cccc(OCCSc2nc3ccc(NC(=O)COc4ccccc4)cc3s2)c1,"inconclusive: 100 µM [inhibitor, single point]",–
Cc1ccccc1-c1nnc(-c2ccc(Cl)cc2)o1,–,inactive: -2.29%
CC(C)CCC(C)N=Cc1c(O)n(Cc2ccccc2)c(=O)c2ccccc12 (configuration not stated),"inconclusive: 70.8 µM [inhibitor, single point]",–
CC1CCC(C(C)C)C(OCC(O)C[N+]2(C)CCCCC2)C1 (configuration not stated),–,inactive: -28.6%

# Source: PubChem BioAssay AID504333 (National Center for Advancing Translational Sciences (NCATS), 2011)
